# Results reported in PubChem BioAssay AID504332 (National Center for Advancing Translational Sciences (NCATS), 2011).
# The campaign covered roughly 350,000 compounds. About 31,000 (8.9%) were called active. The inconclusive results got no clear call from the source; some entries with a clear call stand among them for comparison. The call rests on the fitted dose curve; in most records, active means well fitted inhibition curve with a large enough effect; inconclusive means small, poorly fitted or top-dose-only effect; inactive means no such curve, though single readings can be large or run the other way. Where the call is inconclusive, the potency comes from a doubtful curve fit.
# Target: Histone-lysine N-methyltransferase EHMT2 (Homo sapiens) (UniProt Q96KQ7)
# Assay: qHTS Assay for Inhibitors of Histone Lysine Methyltransferase G9a; further: nearly all actives have a fitted effect of over 75% in size
# Conditions: G9a H3K9 monomethylation, AlphaScreen, 2 h; activity, negative = inhibition: at 59 µM (top of the series) unless noted
# Method in brief: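 Quantitative HTS format: methyltransferase activity on a biotin-tagged H3K9 peptide is measured by AlphaScreen, using a rabbit anti-monomethyl-H3K9 antibody with streptavidin donor and anti-IgG acceptor beads. Final levels are 20 nM enzyme, 500 nM peptide, 20 uM SAM; 2 h RT.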
# On the % scale 0 is the no-effect control and ±100 the full control effect; potency means the concentration at half of the fitted maximal effect; tags describe the fitted curve by direction and shape.
# UniProt Q96KQ7, sequence (Q96KQ7 whole entry, looked up): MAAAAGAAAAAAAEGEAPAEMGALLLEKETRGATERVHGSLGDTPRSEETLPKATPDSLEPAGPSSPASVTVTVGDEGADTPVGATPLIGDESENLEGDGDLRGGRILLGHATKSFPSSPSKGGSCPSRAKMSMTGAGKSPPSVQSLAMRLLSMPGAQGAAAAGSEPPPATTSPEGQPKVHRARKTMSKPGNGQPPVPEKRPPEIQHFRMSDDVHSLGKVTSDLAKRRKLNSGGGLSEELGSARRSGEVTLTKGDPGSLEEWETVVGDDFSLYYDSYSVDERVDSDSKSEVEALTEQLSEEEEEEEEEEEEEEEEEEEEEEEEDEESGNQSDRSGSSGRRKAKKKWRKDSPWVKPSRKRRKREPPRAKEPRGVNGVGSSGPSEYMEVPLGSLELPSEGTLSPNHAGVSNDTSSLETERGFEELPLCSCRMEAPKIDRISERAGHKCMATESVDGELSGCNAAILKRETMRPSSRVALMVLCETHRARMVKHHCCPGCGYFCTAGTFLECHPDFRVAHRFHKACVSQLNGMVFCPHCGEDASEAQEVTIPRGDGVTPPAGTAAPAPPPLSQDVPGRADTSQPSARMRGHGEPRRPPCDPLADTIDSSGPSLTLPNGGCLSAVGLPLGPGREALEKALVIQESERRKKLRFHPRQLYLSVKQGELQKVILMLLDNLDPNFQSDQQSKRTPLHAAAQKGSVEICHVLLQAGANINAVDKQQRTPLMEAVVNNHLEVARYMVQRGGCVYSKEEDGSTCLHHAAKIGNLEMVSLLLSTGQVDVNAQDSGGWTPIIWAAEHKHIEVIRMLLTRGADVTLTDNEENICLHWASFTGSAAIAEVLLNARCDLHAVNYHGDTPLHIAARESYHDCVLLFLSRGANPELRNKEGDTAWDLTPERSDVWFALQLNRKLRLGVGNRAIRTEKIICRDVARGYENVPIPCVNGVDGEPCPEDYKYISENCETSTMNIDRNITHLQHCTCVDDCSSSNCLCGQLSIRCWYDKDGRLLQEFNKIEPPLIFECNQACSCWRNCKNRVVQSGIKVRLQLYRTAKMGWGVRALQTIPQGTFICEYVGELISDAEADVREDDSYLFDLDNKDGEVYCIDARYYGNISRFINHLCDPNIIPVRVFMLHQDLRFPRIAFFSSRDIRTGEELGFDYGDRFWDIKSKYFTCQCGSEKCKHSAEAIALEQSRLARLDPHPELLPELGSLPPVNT
SMILES,Potency,"activity, negative = inhibition"
CCCNC(=O)c1ccc(C2SCC(=O)N2CCc2ccccc2)cc1 (stereo unspecified),active: 44.7 µM,
C=C1C(CCl)(CCl)C2(Cl)C(Cl)C(Cl)C1(Cl)C2(Cl)Cl (stereo unspecified),"inconclusive: 2.51 µM [inhibitor, partial curve, poor fit]",
O=C(N/C=C/c1ccc(Cl)cc1)NCc1ccc(Cl)cc1,"inconclusive: 10 µM [inhibitor, partial curve, poor fit]",
Cc1cccc(C)c1NC(=O)CN(C)C(=O)c1ccc(N2C(=O)CCC2=O)cc1,"inconclusive: 35.5 µM [inhibitor, partial curve, poor fit]",
Cc1ccc(-c2nc(Cn3c(SCc4ccc(F)cc4)nc4cccnc43)c(C)o2)cc1,"inconclusive: 10 µM [inhibitor, partial curve]",
CCN(C(=O)c1cccn(Cc2cccc(Cl)c2)c1=O)c1ccccc1,,inactive: 26.7%
COc1cccc(-c2csc(N3CCN(CC(=O)Nc4ccc5c(c4)OCO5)CC3)n2)c1,"inconclusive: 7.08 µM [inhibitor, single point]",
CC(OC(=O)C1CCN(c2ccc(C(F)(F)F)cn2)CC1)C(=O)Nc1cccc([N+](=O)[O-])c1 (stereo unspecified),"inconclusive: 10 µM [inhibitor, partial curve, poor fit]",
O=C(O)CCC(=O)/C=C/c1ccccc1,,inactive: -27.5% [at 102 µM]
N#CC1=C(N)NC(SCC(=O)Nc2ccc(Br)cc2)=C(C#N)C12CCCCC2,active: 70.8 µM,
O=C(CCCCn1c(=O)[nH]c2ccsc2c1=O)NCc1ccc2c(c1)OCO2,,inactive: 24.3% [at 102 µM]
Nc1ccccc1NC(=O)CCn1c(=S)[nH]c2ccccc2c1=O,active: 44.7 µM,
CSCCC(NC(=O)OC(C)(C)C)C(=O)Oc1ccc2c(=O)c(-c3ccc4c(c3)OCCO4)coc2c1 (stereo unspecified),"inconclusive: 39.8 µM [inhibitor, single point]",
COC(=O)CN1C(=O)C(O)(CC(=O)c2ccc(Cl)cc2)c2ccccc21 (stereo unspecified),"inconclusive: 79.4 µM [inhibitor, single point]",
CCOC(=O)/C(N=Nc1ccc(F)cc1)=C(/O)c1ccc([N+](=O)[O-])cc1,"inconclusive: 79.4 µM [inhibitor, single point]",
Cc1nn(-c2nnc(C)c(=O)[nH]2)c(C)c1SCC(=O)Nc1ccc(F)cc1,"inconclusive: 3.98 µM [inhibitor, single point]",
CC(=O)c1ccc(NC(=O)CSc2ccc(-c3ccc(-n4cccn4)cc3)nn2)cc1,,inactive: -9.13% [at 102 µM]
CCCCN(C)C(=O)C1CCN(Cc2ccccn2)CC1,active: 5.62 µM,
O=c1/c(=C/c2ccco2)sc2nc(-c3ccccc3Br)nn12,active: 22.4 µM,
Cc1c(Cc2c(C)n(C)n(-c3ccccc3)c2=O)c(=O)n(-c2ccccc2)n1C,,inactive: -4.68% [at 102 µM]
COc1ccccc1/C=C/C1(C(=O)NC2CCCC2)CC(=O)N1c1ccc(F)cc1 (stereo unspecified),"inconclusive: 35.5 µM [inhibitor, single point]",
COC(=O)CN=Cc1c(C)[nH]n(-c2ccccc2)c1=O,"inconclusive: 50.1 µM [inhibitor, partial curve, poor fit]",
CC(=O)c1ccc(S(=O)(=O)N2CCn3cccc3C2c2ccc(F)c(F)c2)cc1 (stereo unspecified),"inconclusive: 11.2 µM [inhibitor, partial curve, poor fit]",
NC(=O)C1CCCN(C(=O)c2ccc(-c3cccc(Cl)c3Cl)o2)C1 (stereo unspecified),"inconclusive: 50.1 µM [inhibitor, partial curve]",

SMILES,Potency,"activity, negative = inhibition"
CCc1nnc(SCc2nc(-c3cccc(C)c3)oc2C)c2cc3sc(C)cc3n12,,inactive: -2.67%
O=C(CSc1nccn1-c1ccc(F)cc1)Nc1cccc2ccccc12,active: 14.1 µM,
O=C(CCNc1cccc(F)c1)c1cc2ccccc2o1,active: 10 µM,
Cc1cccc(NC(c2ccc(C)s2)c2ccc3ccc(C)nc3c2O)n1 (stereo unspecified),active: 1.78 µM,
CC(NC(=O)/C=C/c1ccco1)c1nc2ccccc2n1Cc1ccccc1F (stereo unspecified),"inconclusive: 17.8 µM [inhibitor, single point]",
CCCCCCNC(=O)c1ccc(Br)o1,"inconclusive: 31.6 µM [inhibitor, single point]",
CC(=O)c1cccc(S(=O)(=O)N2CCC(n3nnc4cc(F)ccc43)CC2)c1,"inconclusive: 50.1 µM [inhibitor, partial curve, poor fit]",
Cc1cccc(C(=O)NNC(=O)C2CCN(C(=O)OC(C)(C)C)CC2)c1,"inconclusive: 89.1 µM [inhibitor, single point]",
COc1cccc(NC(=O)C2CCN(S(=O)(=O)c3c(C)noc3/C=C/c3cccs3)CC2)c1,,inactive: -26.1%
Cc1ccnc(NS(=O)(=O)c2ccc(NC(=O)CN3C(=O)CCC3=O)cc2)n1,"inconclusive: 50.1 µM [inhibitor, partial curve, poor fit]",
CC1CC(C)CN(C(=O)CCn2c(=O)oc3ccccc32)C1 (stereo unspecified),,inactive: 16.3% [at 102 µM]
Nc1ccc(OCCCc2c(N)nc(N)nc2N)cc1,"inconclusive: 70.8 µM [inhibitor, single point]",
Cc1nc2sc(C)c(C)c2c(=O)o1,,inconclusive: -76.9% [inhibitor]
CCCN1C(=O)C2(C(C(=O)c3ccc(C)o3)=C(O)C(=O)N2CCCOC)c2ccccc21 (stereo unspecified),"inconclusive: 79.4 µM [inhibitor, partial curve, poor fit]",
CC(C)CC1CC(=O)OC1(C)C(=O)CSc1nc2ccccc2s1 (stereo unspecified),,inactive: -26.3% [at 0.501 µM]
CCn1c(CSc2nc3ccccc3s2)nnc1SCC(=O)c1ccc2c(c1)OCCO2,"inconclusive: 39.8 µM [inhibitor, single point]",
Cc1c(NC(=O)C(=O)/C=C(\O)c2ccc(Br)cc2)c(=O)n(-c2ccccc2)n1C,"inconclusive: 17.8 µM [inhibitor, single point]",
Cc1ccc(OCCCCn2nnc3sc4c(c3c2=O)CCC(C)C4)cc1 (stereo unspecified),"inconclusive: 31.6 µM [inhibitor, single point]",
CCn1c(=N)c(C(=O)NC2CCCC2)cc2c(=O)n3cc(C)ccc3nc21,,inactive: 10.9%
OC(CNCc1ccco1)Cn1c2ccccc2c2ccccc21 (stereo unspecified),active: 50.1 µM,
CCC(C(=O)NC1CCCC1)N(C(=O)Cn1nnc(-c2ccc(C)o2)n1)c1ccc(OC)c(OC)c1 (stereo unspecified),"inconclusive: 39.8 µM [inhibitor, full curve, poor fit]",
CCCCc1nnc(NC(=O)CCSc2ccccc2)s1,,inconclusive: -67.6% [inhibitor] [at 102 µM]
CCc1nc(Nc2ccccc2F)c2oc3ccccc3c2n1,active: 50.1 µM,
O=C1NN=C(c2ccc(Cl)cc2)CC1c1c[nH]c2ccccc12 (stereo unspecified),"inconclusive: 50.1 µM [inhibitor, partial curve, poor fit]",

SMILES,Potency,"activity, negative = inhibition"
CCC(C)S(=O)(=O)c1oc(-c2ccc(F)cc2)nc1S(=O)(=O)c1ccc(F)cc1 (stereo unspecified),,inactive: -2.96%
CCOC(=O)c1cc(-c2cccc(C(F)(F)F)c2)nc2nc(SC)[nH]c(=O)c12,"inconclusive: 14.1 µM [inhibitor, partial curve, poor fit]",
CC(C)c1ccc(CNCCSc2nnnn2-c2ccccc2)cc1,,inactive: -5.35%
Cc1ccc(C)c(NS(=O)(=O)c2ccc(OCC(=O)NCc3cccnc3)cc2)c1,,inactive: -5.51% [at 102 µM]
CCNC(=O)C1CCCN(c2nn3cc(-c4ccc(C)cc4)nc3s2)C1 (stereo unspecified),,inactive: -49%
COc1ccc(OC)c(NC(=O)CCN2CCN(C)CC2)c1,"inconclusive: 56.2 µM [inhibitor, partial curve]",
COc1cccc(Cn2cc(C)cc(NC(=O)NCc3ccccc3)c2=O)c1,"inconclusive: 100 µM [inhibitor, single point]",
Cc1ccccc1NC(=O)CCCNC(=O)c1ccc(Cl)cc1,"inconclusive: 50.1 µM [inhibitor, partial curve, poor fit]",
Cc1ccc(C2Nc3ccccc3-n3c(-c4ccccc4)c4c(=O)n(C)c(=O)n(C)c4c32)cc1 (stereo unspecified),"inconclusive: 31.6 µM [inhibitor, single point]",
O=C(N/N=C/c1cccc2nccnc12)c1ccccc1O,,inactive: 13.2% [at 102 µM]
CCOc1ccc(NC(=O)CC(NC(C)=O)c2ccccc2)cc1S(=O)(=O)N1CCCC1 (stereo unspecified),"inconclusive: 3.55 µM [inhibitor, single point]",
COc1ccc(NC(=O)c2nn(C)c3c2CSc2ccc(C)cc2-3)cc1OC,"inconclusive: 22.4 µM [inhibitor, single point]",
COc1cccc(-c2nc(N(C)Cc3ccco3)c3ccccc3n2)c1,,inactive: 1.27% [at 0.501 µM]
O=C(c1ccc(C#Cc2ccccc2)o1)N1CCN(c2ccccn2)CC1,active: 44.7 µM,
COc1ccc(CNC(=O)CN2C(=O)COc3ccc(S(=O)(=O)N4CCCCCC4)cc32)cc1,,inactive: 6.49%
Cc1nc(N)sc1Cc1ccc2c(c1)OCO2,"inconclusive: 31.6 µM [inhibitor, single point]",
COc1cc(/C=N/N2CCN(c3ccccc3)CC2)ccc1OC(C)=O,"inconclusive: 89.1 µM [inhibitor, single point]",
O=C(CN(Cc1ccco1)C(=O)c1ccc(F)cc1F)Nc1ccccc1C(F)(F)F,,inconclusive: -55.8% [inhibitor] [at 12.7 µM]
COC(=O)c1c(=O)n(O)c2ccc(OC)cc2[n+]1[O-],active: 31.6 µM,
CC1CCCCN1C(=O)c1cccc(NC(=O)c2ccccc2)c1 (stereo unspecified),,inactive: 6.13% [at 102 µM]
Cn1c(-c2ccccc2)c[n+]2c1-c1ccccc1C2,,inactive: 17.5%
Cc1ccc(S(=O)(=O)CCC(=O)NCCN2C(=O)S/C(=C\c3ccccc3)C2=O)cc1,,inactive: 9.2% [at 102 µM]
c1ccc2oc(SCc3cn4ccsc4n3)nc2c1,"inconclusive: 22.4 µM [inhibitor, single point]",
